The campaign covered roughly 410,000 compounds. About 1,200 (0.29%) were called active. Inconclusive results, whose numbers are uncertain, are shown with a selection of clear calls. Calls follow the shape of the dose curve; as a rule, active = well fitted activation curve with a large enough effect; inconclusive = small, poorly fitted or top-dose-only effect; inactive = flat fitted curve, though single readings scatter. Where the call is inconclusive, the potency comes from a doubtful curve fit.
assay: qHTS of Nrf2 Activators; conditions: AREc32 ARE-luciferase reporter (MCF7-derived line), luminescence, 24 h; series mostly up to 46.1 µM; also: nearly all actives have a fitted effect of over 65% in size
How it was run: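 Each well held 1000 AREc32 cells, which were incubated with compound for 24 hr at 37 deg C after overnight attachment, and ARE reporter activity was quantified by firefly luciferase luminescence.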
Potency is read from the fitted curve at half-maximal effect; tags tell the direction and shape of the fitted curve.

SMILES	Potency
CN(N=Nc1cccc([N+](=O)[O-])c1)c1ccccc1	inconclusive: 17.8 µM [activator, partial curve, poor fit]
Clc1nc2sccn2c1/C=N/n1cnc2ccccc21	active: 3.16 µM
COC(=O)c1sccc1NC(=O)c1c(Cl)cnn1C	inconclusive: 7.94 µM [activator, partial curve]
COc1cccc2cc(C(=O)Nc3ccc(C)cc3)c(=O)oc12	inconclusive: 20 µM [activator, partial curve, poor fit]
O=C(Nc1ncc(S(=O)(=O)c2ccc([N+](=O)[O-])cc2)s1)c1cccnc1	inconclusive: 35.5 µM [activator, single point]
CCOC(=O)c1ccc(NC(=O)C2=C(C)C(=O)OC23CCN(C(C)C)CC3)cc1	inactive
CCc1ccc(C(=O)NC(C(=O)NCC2CCCO2)C(C)C)cc1 (stereo unspecified)	inactive
O=C(c1ccc(S(=O)(=O)c2ccc(F)cc2)c([N+](=O)[O-])c1)N1CCCCCC1	inconclusive: 5.62 µM [activator, single point]
O=C(Nc1ccccc1C(=O)N1CCCCC1)c1nsc2ccccc12	inactive
COc1ccc(-c2nnn(Cc3ccccc3F)n2)cc1	inactive
Cc1no[n+]([O-])c1COc1ccc(/C=C(\C#N)C(N)=O)cc1	inconclusive: 31.6 µM [activator, partial curve, poor fit]
COc1ccc(NC(=O)CNC(=O)Cn2ccc3ccccc3c2=O)cc1OC	inactive
O=[N+]([O-])c1ccccc1/C=N/Nc1nc(N2CCCC2)nc(N2CCCC2)n1	inconclusive: 11.2 µM [activator, partial curve, poor fit]
Cc1cccn2c(=O)nc(SCC(=O)N3CCN(c4ccccc4)CC3)nc12	inactive
COc1ccc(NCc2ccc([N+](=O)[O-])s2)cc1	inconclusive: 25.1 µM [activator, single point]
CCc1ccc2oc(-c3cc(NC(=O)c4cccs4)ccc3Cl)nc2c1	inconclusive: 2.24 µM [activator, partial curve, poor fit]
O=C(O)c1ccc(NN=CC2=C(N3CCOCC3)/C(=C/c3ccccc3)CC2)cc1	inconclusive: 10 µM [activator, partial curve]
N#C/C(=C/c1cccc([N+](=O)[O-])c1)c1nnc2n1CCCCC2	inconclusive: 10 µM [activator, partial curve]
O=[N+]([O-])c1cccc(-c2nnc(-c3ccccc3F)o2)c1	active: 12.6 µM
COC(=O)c1ccc(C2N=C(c3cccs3)CC(c3ccccc3O)N2)cc1 (stereo unspecified)	inconclusive: 22.4 µM [activator, single point]
COC(=O)c1cc(-c2ccccc2)sc1N	active: 15.8 µM
O=C(Nc1ccc2c(c1)OCO2)NC1(C(F)(F)F)Oc2ccccc2O1	inconclusive: 22.4 µM [activator, single point]
CCCCCCCCN1[C@@H](CC(=O)O)c2cc(C(F)(F)F)ccc2S1(=O)=O	inconclusive: 35.5 µM [activator, single point]

SMILES	Potency
Cn1c(=O)c2cc3ccc(Cl)cc3nc2n(C)c1=O	inconclusive: 12.6 µM [activator, partial curve, poor fit]
COc1cccc(N2CCN(CC(=O)c3c(C)[nH]c4ccccc34)CC2)c1	inactive
CCC(C)NC(=O)/C(=C/c1ccco1)c1ccccc1 (stereo unspecified)	inactive
CC(O)CN=c1cc(-c2ccccc2)oc2ccc(Cl)cc12 (stereo unspecified)	inconclusive: 17.8 µM [activator, partial curve, poor fit]
O=C(N/N=C/c1cccc([N+](=O)[O-])c1)c1cccc(Br)c1	inconclusive: 25.1 µM [activator, single point]
C=C1CCC2[C@](C)(CO)[C@H](O)CC[C@@]2(C)[C@@H]1C/C=C1\C(=O)OC[C@H]1O (stereo partly specified)	inconclusive: 35.5 µM [activator, single point]
Cc1nc(NC(=O)c2ccccc2)sc1C1(C)CC(c2ccccc2F)=NO1 (stereo unspecified)	inconclusive: 12.6 µM [activator, single point]
CC(C)Cn1c(O)c(N=NC(=O)c2cccc(S(=O)(=O)N3CCCCC3)c2)c2ccccc21	inactive
Cc1cccc(Nc2nc(-c3ccccc3)nc3ccccc23)c1	inactive
O=C(Nc1ccccc1Cl)c1ccc(-c2ccccn2)s1	inconclusive: 22.4 µM [activator, partial curve, poor fit]
C=C1CCC[C@]2(C)C[C@H]3OC(=O)C(CNC(C)CCCC(C)C)[C@H]3CC12 (stereo partly specified)	inconclusive: 15.8 µM [activator, partial curve, poor fit]
CC[n+]1ccc(/C=C2\Sc3ccccc3N2CCCS(=O)(=O)[O-])c2ccccc21	inactive
Cc1ccc(S(=O)(=O)c2nc(S(C)(=O)=O)sc2N2CCC(C)CC2)cc1	inconclusive: 10 µM [activator, partial curve]
CCOc1ccc2c(ccc(/C=C/c3cc(C)c4cccnc4c3O)[n+]2C)c1	inactive
CC(=O)Nc1ccc(C(=O)OCc2ccc(F)cc2Cl)cc1	inactive
Cc1ccsc1C1NC(=O)c2c(sc3c2CCCC3)N1 (stereo unspecified)	inactive
COn1c(=O)c(-c2cccc(Br)c2)[n+]([O-])c2ccccc21	inconclusive: 5.62 µM [activator, full curve, poor fit]
Nc1c(Cl)ncnc1N/N=C/c1cccc(O)c1	inconclusive: 7.08 µM [activator, partial curve]
CCC(C)c1ccc(Nc2ncccc2C#N)cc1 (stereo unspecified)	inconclusive: 11.2 µM [activator, single point]
COC(=O)/C=C/C(=O)Nc1cccnc1	inconclusive: 22.4 µM [activator, single point]
CCOc1ccccc1NC(=O)Cn1c(=O)nc(-c2ccccc2F)c2cc(Cl)ccc21	inactive
COc1ccc(/C=C2\SC(=O)NC2=S)cc1OC	inconclusive: 17.8 µM [activator, single point]
C/C(=N\NC(=S)Nc1ccc(F)cc1)c1ccc2c(c1)OCCO2	inactive

Source: PubChem BioAssay AID624171 (National Center for Advancing Translational Sciences (NCATS), 2012)
